The record followed here is the RNAGym collection of RNA variant scans (doi:10.7554/elife.90254).

The source gives no read counts; variants with many changes may rest on few reads.

First the molecules themselves.
B1: LINE1-mini (parent)
chain: GGCAGAGCUCAACACAGCGUGGCAAAGUGGCUGUGGCUAGACUGCC

Variants of B1 are the subject of the data set. Briefly: self-cleavage, relative activity (ratio to wild type); higher = more cleavage; in vitro, sequencing; the parent is a self-cleaving ribozyme.
Consider C15U A26U C31U U38A, for which the self-cleavage was 0.02.
On to A16G A25G C37A, for which the self-cleavage amounted to 0.02.
As to A16C G17U G29U C46G, the self-cleavage came to 0.04.
Next, C15U G17C A24U C31G G40A G44U: 0.01.
Next, A16U A25G C31G U38C G44U: 0.
On to A16C C18U G21A G30C, for which the self-cleavage stood at 0.02.
Next, A16G A26U C37G: 0.02; A16C G33U C45G: 0; G17A G21U G40C C42A: 0.08.
Next, A16C G22U G30A G40A C45U: 0.02; A16U G27A G29A C45A: 0.08.
C15U C18A A26G C45G: the self-cleavage was found to be 0.
Next, C15U C18U G40U: 0.07; A16G G19A C37U C45A: 0; A16C G19U U20A G36A G44A: 0.2.
Next, A16U C18A C31G C37A U43A: 0.02.
Next, A16G G21C C45U: 0.22; C15U C45G C46U: 0.09.
As for C15U G17A U20C A25U, the self-cleavage was 0.04.
A16C G35U G40U: the self-cleavage worked out at 0.08.
Next, A16C G21U U34A C37U A39G: 0.01; A16U G30C C42G: 0.02.
Next, A16G A26G C31G C42U: 0.
Next, C15U U20A C31U C45A: 0.08; A16G A24C G40C: 0.
Regarding C15U C31U U43C, the self-cleavage was 0.07.
Consider A16G G30U C37U U38C, for which the self-cleavage is 0.04.
Regarding C15U G27C C31U, the self-cleavage was 0.02.
A16C C23A U32C C46A: the self-cleavage was found to be 0.07.
Next, A16G U32C C37U: 0; C15U G30U C46G: 0.22; A16C G17C G19U G22U C31U: 0.01.
Next, A16U A26C G35U G36C: 0.05; G17A G21U A39G: 0.1.
For A16U G21C G33U A39U, the self-cleavage is 0.02.
Next, C15U A25C C31G A41G C45G: 0.08; A16U C31U C45A: 0; A16G G22U G35U: 0.02.
With A16G U20A C45U, the self-cleavage is 0.07.
Take C15U G21U G30A: the self-cleavage came to 0.23.
Next, A16G G19U C46G: 0.54.
Next, G17A A39G A41U: 0.05; A16U A25U C46G: 0.06.
Next, G17A A24U A25U C37U: 0.02; C15U G30A G35U: 0.04; A16C G17U G21C G27C G36A: 0.12.
Regarding C15U C18A G22C A26G, the self-cleavage was found to be 0.05.
Next, C15U G17A A25G: 0.03.
Next, A16G U28C U32A: 0.03.
Next, C15U G22U G40A A41G: 0.2; A16U G29C G44U: 0.04; A16U A39C G40U: 0.02.
In the case of A16G U20G G29C C37U C45U, the self-cleavage amounted to 0.01.
For the variant G17A A26C U28A G30U A41C, the self-cleavage is 0.01.
Next, A16G G19C G27A G36A: 0.34; A16G A24C C31U: 0.09.
Next, C15U G17U C18U: 0.05; C15U U20G A26G: 0.19; A16U C23G U38G: 0.
On to C15U G19A A26G, for which the self-cleavage came out at 1.54.
Next, C15G U32C U43A: 0; C15U G17A C23U A26C: 0.03; G17A C18U C37U C45G: 0.1.
Next, A16C U20A A24C C31A U38G: 0.
Turning to A16C G29U G36U, the self-cleavage was determined as 0.04.
Next, A16C G40A C45G: 0.01; G17A C42U C45U: 0.04; A16G U20A G27A U28A C42U: 0.04.
Next, A16G C18U G19A A41C: 0.03.
Next, C15U G29U U32A: 0.06.
C15U G17U G27C U28C: the self-cleavage was 0.16.
Next, C15U G21A C37G: 0.03.
For A16G G36A A41C, the self-cleavage stood at 0.03.
On to G17A G30C G33U G40U A41U, for which the self-cleavage was found to be 0.05.
Next, A16C G22A A25C: 0.22.
Next, G17A C18G A39C: 0; G17A G29C C42A: 0.01; C15U A24U U38G: 0.04.
As for A16U A24C C37U, the self-cleavage came to 0.1.
As for A16U G21U C37G, the self-cleavage was found to be 0.02.
In the case of G17A G19C U28C G30C C45A, the self-cleavage amounted to 0.01.
Next, A16U G33C C46A: 0.06; A16C C23A G35U: 0.06; G17A G30A C31A: 0.14.
Next, A16U C18G C31U C45A: 0.03; C15U U38C C45G: 0.61.
For A16C A26G C37A A39G, the self-cleavage came out at 0.04.
Regarding A16U U20G G29C, the self-cleavage is 0.2.
Next, A16U U38A C45U: 0.08; A16U G19A G22C: 0.16.
As to C15U G17C U32A, the self-cleavage stood at 0.12.
Turning to A16C A24U C45G, the self-cleavage came to 0.02.
G17A G21A U38C G40A: the self-cleavage was 0.05.
Consider A16U G27A U28G G29U U32G G36U G40A, for which the self-cleavage was 0.11.
Regarding C15U G19C G35U C37G G40C, the self-cleavage worked out at 0.02.
For A16U G21A U28C U34A U43C, the self-cleavage worked out at 0.03.
Next, A16U G17C U32A: 0.25; A16C G40U U43A G44U: 0.06.
Next, A16C G17U C18U U20C U32G: 0.2; A16C U28C G40C: 0.04.
On to C15U U20A G35U, for which the self-cleavage stood at 0.07.
As to A16G G21U C37A, the self-cleavage amounted to 0.03.
Next, A16G G27C C45G: 0.07; A16G C37G U43G: 0; A16C A41G C45A: 0.05.
As for A16U G19U G44A C45U C46U, the self-cleavage came to 0.04.
Next, C15U G19A C37U: 0.02; A16U G17U G27C: 0.14; C15U C23A G30U: 0.55.
Next, G17A A41G U43A: 0.01; A16C U20A G36A A39C G44C: 0.
Next, C15U G40A U43G: 0.09; A16C G17A G29U G40C C46U: 0.01.
Consider C15U U20A G33C G35C, for which the self-cleavage was found to be 0.02.
Next, C15U G33U A39U A41U: 0.13; A16C G35A A41G: 0.03.
Next, A16C C18A U20A U43G C45G: 0.
Consider A16U G17U G27A U32G, for which the self-cleavage is 0.32.
Next, A16U G36C A41G: 0.02; A16G C23A G27A: 0.67; A16G U28G G30C G40A: 0.01.
Next, G17A G19A A26C G27C G30C U34G: 0.01; C15U G29U C42U: 0.71.
In the case of C15U G27A G29U, the self-cleavage was 2.4.
Regarding G17A G27U C45A, the self-cleavage stood at 0.08.
On to G17A C45G C46G, for which the self-cleavage amounted to 0.02.
For the variant G17A C18G G30A, the self-cleavage came out at 0.11.
Next, A16C G21A G40C C45A: 0.03; C15U C37G C42U: 0.04; A16U G19U A39G A41C G44A: 0.01.
As to A16U G21U G36C, the self-cleavage is 0.03.
Next, A16G G21U G27C: 0.52; C15U G21A G22U C23A G44A: 0.17.
Consider A16U G27U G30U G44C, for which the self-cleavage amounted to 0.08.
C15U U34A G36A: the self-cleavage is 0.04.
Next, A16C G17U G21A A25C U38A: 0.07; G17A G22U G29U G36C: 0.03.
For A16G A24U U32A G35C G44C, the self-cleavage is 0.02.
Next, A16G G17U G21C C37U: 0.01; A16U G22U C46A: 0.08; A16G G33C G44U: 0.
Turning to A16C G33C C42U, the self-cleavage came out at 0.13.
Next, C15U G33A U34G: 0.31; C15U G35U C37G: 1.03; A16C G33U G36C U38G: 0.02.
For A16C C18U G19C C31G, the self-cleavage stood at 0.04.
Next, C15U G30A U32A: 0.18.
Next, C15U G19C G21A G40A: 0.04; C15U G29U C37A: 0.06; A16C C42G C46U: 0.17.
C15U U20C C37A: the self-cleavage turned out to be 0.32.
Next, A16G G17U A26U G27U G40C: 0; C15U G17A G33U U34C G36A A39U C45U: 0.01; A16C C18A G19C U20G: 0.
Next, C15U G22A C42G: 0.13; A16G A25G G30A: 0.16; G17A A24U G27U C45A: 0.04.
A16C G27C G29A G30U G36A U38A: the self-cleavage worked out at 0.05.
For A16U G17C G21C, the self-cleavage worked out at 0.04.
Take A16G C23A G30A G35A: the self-cleavage amounted to 0.01.
As to A16G C37U U38C U43C C45G C46G, the self-cleavage worked out at 0.01.
Next, A16U C23A U38C: 0.13.
On to A16C G29A G36A, for which the self-cleavage worked out at 0.04.
Next, A16G G19U C23A G40C: 0.16; A16U G19C U20A C31G G44A: 0.02; A16U U32G U34G A39G: 0.
Next, A16U G17A C23U A26G: 0.01.
